# Structures can show the parent of a compound that is named as a salt. ± gives the standard deviation of the averaged measurements. Whole data set: some 2,600 compounds, median “total cell number (DAPI+ nuclei) relative to DMSO vehicle control” near -1.4, cut for the lowest 2% near -23. The list shows a part of the results.
# Test system: jimpy (Plp1 jimpy) mouse iPSC-derived oligodendrocyte progenitor cells
# Experiment: total cell number (DAPI+ nuclei) relative to DMSO vehicle control (SDs above negative control mean); higher = more surviving cells
# Details: 10 µM; 3 days
# Experimental: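 Primary phenotypic screen of >3,000 bioactive compounds (Selleck L1700 and Sigma LO1280 libraries) at a single dose of 10 µM. Compounds were added to jimpy (Plp1 mutant) mouse iPSC-derived OPCs at the start of thyroid hormone-induced oligodendrocyte differentiation, one well per compound in 384-well plates. After 3 days cells were stained for MBP, Sox10 and DAPI and imaged with an Operetta system. MBP+ oligodendrocyte number and total cell number were expressed as the number of SDs above the mean of the DMSO negative control on the same plate (n=16 control wells per plate). Hits were defined as >=4 SD for oligodendrocytes and >=2 SD for total cells.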
row,SMILES,total cell number
1,Cc1ccc2c(=O)c3cccc(CC(=O)O)c3oc2c1C [DMXAA (Vadimezan)],-1.58
2,C[C@H]1O[C@@H](Oc2c(-c3cc(O)c(O)c(O)c3)oc3cc(O)cc(O)c3c2=O)[C@@H](O)[C@@H](O)[C@@H]1O [Myricitrin],-0.368
3,N[C@@]1(C(=O)O)CS(=O)(=O)[C@H]2[C@H](C(=O)O)[C@H]21,-0.639
4,C=C1/C(=C\C=C2/CCC[C@]3(C)[C@@H]([C@H](C)/C=C/[C@H](C)C(C)C)CC[C@@H]23)C[C@@H](O)C[C@@H]1O [Doxercalciferol],4.08
5,CC(C)(C)c1ccc(C(O)CCCN2CCC(C(O)(c3ccccc3)c3ccccc3)CC2)cc1 (stereo not given) [Terfenadine],-10.6
6,CCCCN1CCCCC1C(=O)Nc1c(C)cccc1C (stereo not given) [Bupivacaine HCl],-1.39
7,CCOC(=O)c1c(CSc2ccccc2)n(C)c2cc(Br)c(O)c(CN(C)C)c12 [Arbidol HCl],-4.97
8,CCN1CCN(Cc2ccc(-c3cc4c(N[C@H](C)c5ccccc5)ncnc4[nH]3)cc2)CC1,-17.3
9,Cc1nc(Nc2ncc(C(=O)Nc3c(C)cccc3Cl)s2)cc(N2CCN(CCO)CC2)n1 [Dasatinib],-22.6
10,Cc1cc(Nc2nc(N[C@@H](C)c3ccc(F)cc3)c(C#N)cc2F)n[nH]1,-12.8
11,Cc1nc(-c2ccc(OCC(C)C)c(C#N)c2)sc1C(=O)O [Febuxostat],4.88
12,CC(C(=O)O)c1ccc2c(c1)CC(=O)c1ccccc1S2 (stereo not given) [Zaltoprofen],-0.852
13,Oc1cc2c(cc1O)[C@@H]1c3ccc(O)c(O)c3OC[C@]1(O)C2 [Hematoxylin],-1.72
14,CN(C)c1ccc(C(=C2C=CC(=[N+](C)C)C=C2)c2ccc(N(C)C)cc2)cc1 [Crystal Violet],-17.9
15,CC(=O)[C@H]1CC[C@H]2[C@@H]3CC=C4C[C@@H](O)CC[C@]4(C)[C@H]3CC[C@]12C [Pregnenolone],-4.76
16,COc1ccc(CC2c3cc(OC)c(OC)cc3CC[N+]2(C)CCC(=O)OCCCCCOC(=O)CC[N+]2(C)CCc3cc(OC)c(OC)cc3C2Cc2ccc(OC)c(OC)c2)cc1OC (stereo not given) [Atracurium Besylate],-3.76
17,C/C(=C\c1ccc(C(=O)O)cc1)c1ccc2c(c1)C(C)(C)CCC2(C)C [TTNPB (Arotinoid Acid)],0.197
18,Nc1ccc(CCNc2ncnc3c2ncn3C2OC(CO)C(O)C2O)cc1 (stereo not given) [N6-2-(4-Aminophenyl)ethyladenosine],-1.4
19,COc1ccc(-c2ccc3c(N4CCOCC4)nc(N4C[C@@H](C)O[C@@H](C)C4)nc3n2)cc1CO,-6.43
20,OC(CN1CCN(c2cccc(Cl)c2)CC1)C(c1ccccc1)c1ccccc1 (stereo not given),-3.86

row,SMILES,total cell number
1,COc1cc(OC)c(/C=C/S(=O)(=O)Cc2ccc(OC)c(NCC(=O)O)c2)c(OC)c1,-13.9
2,CN(C)[C@@H]1C(O)=C(C(N)=O)C(=O)[C@@]2(O)C(O)=C3C(=O)c4c(O)cccc4[C@@](C)(O)[C@H]3[C@H](O)[C@@H]12 [Oxytetracycline (Terramycin)],1.13
3,NC1C=CC=C(C(=O)O)C1 (stereo not given) [Gabaculine hydrochloride],0.602
4,CC(C)(Sc1ccc(CCN(CCCCC2CCCCC2)C(=O)NC2CCCCC2)cc1)C(=O)O,-1.49
5,CSc1ccc2c(c1)N(CCC1CCCCN1C)c1ccccc1S2 (stereo not given) [Thioridazine hydrochloride],-6.49
6,Nc1nc(OCc2ccccc2)c2nc[nH]c2n1 [O6-benzylguanine],-3.83
7,CC1=C(/C=C/C(C)=C/C=C/C(C)=C\C(=O)O)C(C)(C)CCC1 [13-cis-retinoic acid],-2.92
8,CC1=C(/C=C/C(C)=C/C=C/C(C)=C\C(=O)O)C(C)(C)CCC1 [Isotretinoin],-3.31
9,CC/C(=C(/CC)c1ccc(O)cc1)c1ccc(O)cc1 [Diethylstilbestrol],0.384
10,NC(N)=Nc1nc(CSCC/C(N)=N/S(N)(=O)=O)cs1 [Famotidine],-0.923 ± 0.22
11,CC[N+](CC)(CC)CC(=O)Nc1c(C)cccc1C [Lidocaine N-ethyl bromide quaternary salt],-0.573
12,Cc1ccc([N+](=O)[O-])cc1S(=O)(=O)N(C)/N=C/c1cnc2ccc(Br)cn12,-25.8
13,COc1cc(NC(C)CCCN)c2ncccc2c1 (stereo not given) [Primaquine Diphosphate],-13.1
14,COCCOc1cc2ncnc(Cl)c2cc1OCCOC,-0.904
15,CC(=O)CC/C=C(\C)CC/C=C(\C)CC/C=C(\C)CCC=C(C)C [Geranylgeranylacetone],0.798
16,"C=CCn1c(=O)c2c(nc(-c3ccc(S(=O)(=O)O)cc3)n2C)n(C)c1=O [1-Allyl-3,7-dimethyl-8-p-sulfophenylxanthine]",-0.241
17,Cc1ccc(S(=O)(=O)NC(=O)NN2CCCCCC2)cc1 [Tolazamide],-0.733
18,CCCN(CCc1ccccc1)C1CCc2c(O)cccc2C1 (racemic) [(±)-PPHT hydrochloride],-2.84
19,CN1CCN(c2c(F)cc3c(=O)c(C(=O)O)cn4c3c2OCN4C)CC1 [Marbofloxacin],2.46
20,COc1ccc(CCNc2nc(N3CCc4cc(OC)c(OC)cc4C3)c3cc(OC)c(OC)cc3n2)cc1OC,-11.2

# Source: the supplement of paper PMC6135742
